{
  "source": "the supplement of paper PMC11417369",
  "note": "Some of the results follow.",
  "data": [
    {"system": "PF3D7_0420300 AP2 domain 1 (GST-tagged)", "assay": "gcPBM binding intensity (ln(normalized median fluorescence intensity)); higher = stronger DNA binding", "summary_of_the_method": "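Binding intensity values are the highest Masliner-normalised natural-log median intensity among replicate spots of either probe orientation. The binding step lasted 1 h in 1× PBS with 1% milk, 0.2 mg/ml BSA, 0.5% salmon testes DNA and 0.03% Triton X-100, using GST-tagged P. falciparum DNA-binding domains expressed in E. coli on an Agilent 4 × 180k array of primer-extended double-stranded 36-bp intergenic genomic probes plus negative controls. Alexa488 anti-GST antibody and a 488 nm scan detected bound protein.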", "values": [
      {"sequence": "ATATGGTGATATAGGTGTACATTTTGATGCTTATTT [XGTACX_site4283]", "gcPBM binding intensity (ln)": 9.5},
      {"sequence": "TTATACATGAAATATTGTACACATATATATATATAT [XGTACX_site4378]", "gcPBM binding intensity (ln)": 9.22},
      {"sequence": "TATGAATATTTGTATACATGCATATAGAAATCATAT [TGCATGCA_site533]", "gcPBM binding intensity (ln)": 9.13},
      {"sequence": "ATATATTATATATATATATATATATATTATTATTGT [TGCATGCA_negctrl_site286]", "gcPBM binding intensity (ln)": 9.18},
      {"sequence": "TGCATTATTTACAAGGTGCGTTACAAATGTGTAACA [GTGCAC_site9442]", "gcPBM binding intensity (ln)": 9.11},
      {"sequence": "GCTTTAATCTGAAAGTGTACAGATAATATATTTATA [XGTACX_site2462]", "gcPBM binding intensity (ln)": 9.02},
      {"sequence": "GATAAATGTATATATGCATGCACATATATTTATACA [TGCATGCA_site748]", "gcPBM binding intensity (ln)": 9.33},
      {"sequence": "TATTTGTAATATTATACACACATTATATATTACAAA [CACACA_site5804]", "gcPBM binding intensity (ln)": 9.31},
      {"sequence": "ATTTAAATAACGTATGTATATACATATATATATATA [TGCATGCA_negctrl_site207]", "gcPBM binding intensity (ln)": 9.15},
      {"sequence": "CGTAGCCACACTAACACACACAAATATACACAATCA [CACACA_site7379]", "gcPBM binding intensity (ln)": 9.78},
      {"sequence": "TATTTTGTATATAAATGTACAAGTATATATTTTTTC [XGTACX_site7855]", "gcPBM binding intensity (ln)": 9.02},
      {"sequence": "CACGCGCCCGGACACACACACACACCCATATATATA [CACACA_site5251]", "gcPBM binding intensity (ln)": 10.2},
      {"sequence": "GAATAAATATTAAATGTGCACTTGAATAGATGTAAA", "gcPBM binding intensity (ln)": 9.26},
      {"sequence": "TTTTTCATCATATGTTGTACAATGTGTAGATATATT [XGTACX_site3195]", "gcPBM binding intensity (ln)": 9.32},
      {"sequence": "AGATACGATTATATGCGTTCAATATACCAAATAATT [TGCATGCA_negctrl_site501]", "gcPBM binding intensity (ln)": 9.24},
      {"sequence": "CTTTGTGTTAAAAGTAGTACACCAAAAATATGACTT [XGTACX_site622]", "gcPBM binding intensity (ln)": 9.26},
      {"sequence": "TAGTTAACAAATAATGCACACAAATGGATAAAATTA [CACACA_site9240]", "gcPBM binding intensity (ln)": 9.59},
      {"sequence": "ATTCAAATTGTAGAAACACACAAAAACTTAACATAT [CACACA_site2617]", "gcPBM binding intensity (ln)": 9.58},
      {"sequence": "CATATGATATGTTATACACACACGTATATATGAATT [CACACA_site3446]", "gcPBM binding intensity (ln)": 9.62},
      {"sequence": "AAGGGAAAATTAAGGTTGCACTAAAAATATATCTTT [GTGCAC_site9608]", "gcPBM binding intensity (ln)": 9.12},
      {"sequence": "ATGAACATACAATATACACACATATATATTTATATT [CACACA_site4609]", "gcPBM binding intensity (ln)": 9.71},
      {"sequence": "AAGAGAAATTATAACATGTGAAATGTATTATATATA [TGCATGCA_negctrl_site254]", "gcPBM binding intensity (ln)": 9.25},
      {"sequence": "ATTTATATATAATATACACACATATAATCCACATAT [CACACA_site699]", "gcPBM binding intensity (ln)": 9.69},
      {"sequence": "TAAGTATAATATTGATGTACATATAATAACTTGTAT [XGTACX_site417]", "gcPBM binding intensity (ln)": 9.26},
      {"sequence": "AAAAATAAAAAAATGACACACATATATATATATATA [CACACA_site2307]", "gcPBM binding intensity (ln)": 9.6},
      {"sequence": "TATCTCTTATTTTATTGTACTTAACTATGCTATAAT [XGTACX_site4904]", "gcPBM binding intensity (ln)": 9.4},
      {"sequence": "AAAAAAAATTATATATGTACTTATTAATCCTTATAT [XGTACX_site1389]", "gcPBM binding intensity (ln)": 9.15},
      {"sequence": "TATTTCAAAAAAAAAAAAAATAAAAAACAACAACAA [CACACA_negctrl_site893]", "gcPBM binding intensity (ln)": 9.43},
      {"sequence": "ATTTATATATCGCCCACACACATGTGATTATTTATA [CACACA_site6905]", "gcPBM binding intensity (ln)": 9.85},
      {"sequence": "TACTACTATCTATATTGTACAAAAGGTGCCTACAAA [XGTACX_site4267]", "gcPBM binding intensity (ln)": 9.15},
      {"sequence": "TCTATTCAAAATAAAAGTACTAGCATGTGAATTGTT [XGTACX_site5530]", "gcPBM binding intensity (ln)": 9.13},
      {"sequence": "TACAAGTTTTTAAAGTGTACCAAAAAAAAAGAATAA [XGTACX_site979]", "gcPBM binding intensity (ln)": 9.02},
      {"sequence": "TTCATTTATTTACTTACACACTTTATATATGTGGTT [CACACA_site4901]", "gcPBM binding intensity (ln)": 9.68},
      {"sequence": "ATATATAAAATATACACACATACTGTTCATTTAAAG [CACACA_site4169]", "gcPBM binding intensity (ln)": 9.5},
      {"sequence": "AATTATATTCTATTCACACATATTCCAACCTCTTTT [CACACA_site4670]", "gcPBM binding intensity (ln)": 9.59},
      {"sequence": "TGAAAGAACCTGATTACACACATAAATTATATATAT [CACACA_site26]", "gcPBM binding intensity (ln)": 9.54},
      {"sequence": "TTTGATGGTACACGTACACACCTTGCAAATATTTTT [CACACA_site4645]", "gcPBM binding intensity (ln)": 9.46},
      {"sequence": "AAAAGATAATTATGCACACACACACCCAGACACAAC [CACACA_site5428]", "gcPBM binding intensity (ln)": 10.1},
      {"sequence": "TGTATGTTGTAAAATTGTACATATATATTATATTTA [XGTACX_site4883]", "gcPBM binding intensity (ln)": 9.28},
      {"sequence": "ATGAATATAATAAAGAAACACACGTATACATAATGA [CACACA_site1355]", "gcPBM binding intensity (ln)": 9.75},
      {"sequence": "AGTTCTTCGTACCAAAAAACGGCACGCATATGTATA [TGCATGCA_negctrl_site469]", "gcPBM binding intensity (ln)": 9},
      {"sequence": "TGTATTCATACATGCACACGTACATATTTAAATATA [CACACA_site3926]", "gcPBM binding intensity (ln)": 9.3},
      {"sequence": "AAAAATGAAAGGTGTACACATACAAACATAGAAAGA [CACACA_site5020]", "gcPBM binding intensity (ln)": 9.84},
      {"sequence": "AAAATTTATATAGGCACACAAATAAATTAATACATA [CACACA_site1418]", "gcPBM binding intensity (ln)": 9.39},
      {"sequence": "TTTTTTTTTTTTTGGTGTACTTTTTTTAGAACGCAA [XGTACX_site4207]", "gcPBM binding intensity (ln)": 8.86},
      {"sequence": "TTTTTTCTTTCTTTCAAACACACATTAATTTTATTC [CACACA_site2733]", "gcPBM binding intensity (ln)": 9.41},
      {"sequence": "ATTCTACACCCACATACACACATATATATATATATA [CACACA_site3426]", "gcPBM binding intensity (ln)": 9.84},
      {"sequence": "TGTTCAAATTTATTCGATCTTTATATTTAATAAAAC [CACACA_negctrl_site781]", "gcPBM binding intensity (ln)": 9.03},
      {"sequence": "ATATTAGAAATATGAATAGAAAGAATATATAAGTAT [CACACA_negctrl_site682]", "gcPBM binding intensity (ln)": 9.38},
      {"sequence": "AGATACTTTCCTCAAACACACAAAACTATACAACAA [CACACA_site1474]", "gcPBM binding intensity (ln)": 9.45},
      {"sequence": "ATTCAGTTCTATAATACACACATATATTGACATTAT [CACACA_site7309]", "gcPBM binding intensity (ln)": 9.56},
      {"sequence": "ATATTCTTCTAAAGGCGTACATCTACATTTATGAAA [XGTACX_site2145]", "gcPBM binding intensity (ln)": 9.07},
      {"sequence": "GTTAGCTCGTTCGGAGCACACACATATATATATATA [CACACA_site8595]", "gcPBM binding intensity (ln)": 9.45},
      {"sequence": "ATCCTACTATGTTATACACACAATTACTTTTTTCTC [CACACA_site3712]", "gcPBM binding intensity (ln)": 9.86},
      {"sequence": "ATATGTAAAACTTCAAAAAAATATATTTTATGACGA [GTGCAC_negctrl_site324]", "gcPBM binding intensity (ln)": 9.15},
      {"sequence": "TTACAACAGAATGGTATTTTTTTATTTTAAAGAAAA [TGCATGCA_negctrl_site230]", "gcPBM binding intensity (ln)": 8.72}
    ]}
  ]
}
